Out of some 43,000 compounds screened, about 200 (0.47%) were called active. Another 12% or so got no clear call; they are omitted. The call rests on the fitted dose curve; in most records, active means well fitted cell-killing curve with a large enough effect; inconclusive means small, poorly fitted or top-dose-only effect, or effect the other way; inactive means flat fitted curve, though single readings scatter. The list shows a part of the results.
Assay: Cell viability qHTS assay in S16 Pmp22-F2sN cells; further: nearly all actives have a fitted effect of over 65% in size
Settings: S16 Pmp22-F2sN Schwann cells viability, CellTiter-Glo, 24 h; series mostly up to 57.5 µM; activity change, negative = cytotoxicity: at the top concentration
Summary of the method: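 S16 Pmp22-F2sN Schwann cells (500-1,000/well) in phenol-red-free DMEM with 10% FBS received 23 nL compound by pin tool for 24 h at 37 °C. Viability was then read as CellTiter-Glo luminescence after 15 min at room temperature.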
On the % scale 0 is the no-effect control and ±100 the full control effect; potency means the concentration at half of the fitted maximal effect.

Compound	activity change, negative = cytotoxicity	Potency
Fc1ccc(CNc2ncnc3c2c(-c2ccccc2)cn3-c2ccccc2)cc1	inactive: 3.88%	–
Cn1c(=O)n(C)c2cc(S(=O)(=O)Nc3ccccc3C(=O)O)ccc21	inactive: 3.29%	–
Cc1ccc(C)c(NC(=O)CCNS(=O)(=O)c2ccc3c(c2)CCCC(=O)N3)c1	inactive: -4.69%	–
CN(C(=O)CSc1nnc2[nH]c(=O)cc(-c3ccccc3)n12)c1ccccc1	inactive: 1.62%	–
COCCNC(=O)c1ccc2c(c1)N(Cc1cccc(Cl)c1)C(=O)c1ccccc1S2=O (stereo not drawn)	inactive: -9.37%	–
CCOC(=O)c1cc(-c2ccccc2)n(CC(=O)NCc2ccccc2OC)c1C	inactive: 13.8%	–
O=C(Nc1ccc(F)c(F)c1)C1CCCN(S(=O)(=O)c2cccc3nonc23)C1 (stereo not drawn)	inactive: 4.06%	–
Cc1c2cnn(-c3ccccc3)c(=O)c2c(C)n1CCCC(=O)Nc1ccc(F)cc1F	inactive: -13.2%	–
CCOC(=O)c1cc(-c2ccccc2)n(CCCC(=O)Nc2ccc(CC)cc2)c1C	inactive: -26.1%	–
Cc1c(Cl)cccc1NC(=O)CCS(=O)(=O)c1ccc(Br)s1	inactive: 5.46%	–
CC(C)(C)C1CCc2onc(C(=O)Nc3sc4c(c3C(N)=O)CCCC4)c2C1 (stereo not drawn)	inactive: -4.21%	–
O=C(c1ccc2c(Cl)c3c(nc2c1)CCCC3)N1CCN(c2ccccc2)CC1	inactive: 2.15%	–
CCOc1ccccc1NS(=O)(=O)c1c(-c2ccc(C)cc2)csc1C(=O)OC	inactive: -5.36%	–
COc1ccc(-c2noc(C3CC(=O)N(c4cc(C)cc(C)c4)C3)n2)cc1 (stereo not drawn)	inactive: 2.01%	–
COc1ccc(/C=C/c2nc(C#N)c(N3CCN(c4ccccc4)CC3)o2)cc1OC	inactive: 12.1%	–
CCOC(=O)c1c(C)c(C(=O)NCCc2ccc(OC)cc2)c(C)n1C	inactive: -2.75%	–
CCc1nn(CC(=O)Nc2cccc(C)c2C)c(=O)c2cc3sccc3n12	inactive: 2.3%	–
CC1=C(C(=O)Nc2ccc(Cl)cc2)C(C(C)C)n2nc(SCc3cccc(C)c3)nc2N1 (stereo not drawn)	inactive: -0.654%	–
CCC(C)NC(=O)c1ccc2c(c1)N(Cc1ccccc1)C(=O)c1ccccc1S2(=O)=O (stereo not drawn)	inactive: -0.601%	–
CN1CCN(CCCNC(=O)c2cnn(-c3ccccc3)c2C2CCN(C(=O)OC(C)(C)C)CC2)CC1	inactive: 1.76%	–
CCC(Oc1ccccc1)C(=O)Nc1ccccc1OCc1cc(=O)n2ccccc2n1 (stereo not drawn)	inactive: 3.29%	–
CCc1ccccc1NC(=O)c1cc(S(=O)(=O)NCCc2ccc(OC)c(OC)c2)ccc1F	inactive: -2.06%	–
CC(=O)Nc1c(C)nn(-c2ccccc2)c1N1CCC(C(=O)Nc2cc(Cl)ccc2C)CC1	inactive: 6.13%	–
Cc1nnc(NC(=O)c2nc(S(=O)(=O)Cc3ccccc3)ncc2Cl)s1	–	active: 5.01 µM

Compound	activity change, negative = cytotoxicity	Potency
Cc1nc2c(-c3ccccc3)c(C)nn2c(C)c1CCC(=O)NCc1cccc(Cl)c1	inactive: 18.7%	–
CCOc1ccc(NC(=O)C(C)Sc2nnc3cc(C)c4ccccc4n23)cc1 (stereo not drawn)	inactive: 4.28%	–
CCOC(=O)C1CCCN(c2ncnc3c2cnn3-c2ccc(C)c(Cl)c2)C1 (stereo not drawn)	inactive: 5.3%	–
Cn1c(=O)c2c(SCC(=O)NCc3ccco3)nc(-c3ccccc3Cl)nc2n(C)c1=O	inactive: 2.45%	–
Cc1ccc(NC(=O)CSc2nc3c(c(=O)[nH]2)CN(Cc2ccc4c(c2)OCO4)CC3)cc1C	inactive: 9.37%	–
CCOC(=O)c1ccc(NC(=O)c2oc3ccc4c(c3c2C)C(=O)CC(C)(CC)O4)cc1 (stereo not drawn)	inactive: 2.13%	–
CC(C)c1ccc(CNCCSc2nnnn2C)cc1	inactive: -9.79%	–
COc1ccc(C)cc1NC(=O)C(=O)NCCc1csc(-c2ccc(C)cc2)n1	inactive: 2.35%	–
Cc1cccc(NC(=O)C(=O)NCC(c2cccnc2)N2CCOCC2)c1 (stereo not drawn)	inactive: -1.04%	–
CCCOc1ccc(C2c3c(-c4ccccc4O)n[nH]c3C(=O)N2Cc2ccncc2)cc1OCC (stereo not drawn)	inactive: -21.7%	–
COc1ccccc1C(=O)Nc1nc2ccc(S(=O)(=O)N3CCCC3)cc2s1	inactive: -3.87%	–
NCCc1nnc(SCc2ccc(Cl)cc2)o1	inactive: 11%	–
Clc1ccc(CCNc2ncnc3c2c(-c2ccccc2)cn3-c2ccccc2)cc1	inactive: -11.2%	–
COc1ccc(C(=O)CN2C(=O)N(c3cc(C)cc(C)c3)S(=O)(=O)c3ccccc32)cc1	inactive: 2.05%	–
Cc1ccccc1CS(=O)(=O)Cc1ccc(C(=O)NCCc2ccccc2)o1	inactive: -5.8%	–
CCOC(=O)c1ccc(Nc2c(-c3ccc(O)cc3)nc3nc[nH]n23)cc1	inactive: -25.9%	–
COc1cc(C(=O)Nc2cc(C)ccc2OCc2cc(=O)n3cc(C)sc3n2)cc(OC)c1OC	inactive: -0.141%	–
CCCCC(=O)Nc1cccc(OCc2cc(=O)n3ccccc3n2)c1	inactive: 1.16%	–
Cc1ccc(Nc2c(-c3ccc(C)cc3)nc3cnccn23)cc1	inactive: -20.8%	–
COc1ccccc1CNC(=O)Cn1ncc2c(=O)oc3ccc(C)cc3c21	inactive: 0.751%	–
CCCn1c(=O)n(-c2ccccc2)c(=O)c2sc3ccccc3c21	inactive: 7.64%	–
CN(C(=O)CCNC(=O)Cn1cnc2ccccc2c1=O)c1ccccc1F	inactive: 9.82%	–
CCOc1ccc(CCNC(=O)CN2CCN(Cc3ccc(F)cc3Cl)C2=O)cc1OCC	inactive: 11.8%	–
COc1cccc(-c2nc3c(c(SCc4ccccc4)n2)Cc2c(CO)cnc(C)c2O3)c1	inactive: 12.1%	–

Source: PubChem BioAssay AID1508642 (National Center for Advancing Translational Sciences (NCATS), 2021)
